Read counts are not given, so values of variants with three or more changes are uncertain.
B1: CPEB3 Ribozyme (parent)
chain: UAACAGGGGGCCACAGCAGAAGCGUUCACGUCGCAGCCCCUGUCAGAUUCUGGUGAAUCUGCGAAUUCUGCUGUAUAUCUC

Variants of: B1
Experiment: self-cleavage, relative activity (ratio to wild type); higher = more cleavage; in vitro, sequencing
Procedure, shortened: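 Relative activity compares each variant's cleaved/total read fraction with that of the unmutated ribozyme. To get these fractions, barcoded CPEB3 ribozyme libraries from rounds of error-prone PCR were transcribed with T7 RNA polymerase for 5 hours at 37°C and then given 15 min of DNase I treatment before EDTA was added. The RNAs were reverse transcribed with template switching and sequenced on Illumina, and DNA sequencing linked barcodes to variants. A minimum of 5 reads applied, and three batches were averaged.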

| Variant | self-cleavage |
| --- | --- |
| C38U U67C A75G | 0.19 |
| C38U U74G U80C | 0.77 |
| C38U U78C U80G | 1.22 |
| C39A A45G A64U | 0.19 |
| C39A A45G A75G U80G | 0.07 |
| C39A A45G U60A | 0.12 |
| C39A A45G U72A | 0.08 |
| C39A A45G U78C | 0.25 |
| C39A A45U A57G U74C | 0.1 |
| C39A A56G A75G | 0.13 |
| C39A A57G A64G U80C | 0.1 |
| C39A C40U U41A U43C A45U U60C C71U | 0.06 |
| C39A C50U A57G U58A U78C | 0.16 |
| C39A C62U U66C | 0.12 |
| C39A C71G A75G | 0.24 |
| C39A G42A A64G | 0.08 |
| C39A G42A U54C A56G | 0.07 |
| C39A G46U A77G | 0.14 |
| C39A G46U U51C | 0.09 |
| C39A G55A A64G U72C U78C U80A | 0.04 |
| C39A G63A U78C U80C | 0.21 |

| Variant | self-cleavage |
| --- | --- |
| C39A G63U A64G U67A | 0.08 |
| C39A G73C U80C | 0.64 |
| C39A U41C A47G U49C U60C | 0.13 |
| C39A U41C A77U U78C | 0.13 |
| C39A U41C U43A U49C | 0.22 |
| C39A U41C U49C | 0.15 |
| C39A U41C U49C U67G | 0.14 |
| C39A U41C U54C U76C | 0.22 |
| C39A U43C A45G | 0.28 |
| C39A U43C U60A | 0.16 |
| C39A U43C U60A U80A | 0.19 |
| C39A U49C G53C U74A U78C | 0.07 |
| C39A U49C U54C A64U | 0.14 |
| C39A U49C U60C U78C | 0.14 |
| C39A U51A A57C | 0.24 |
| C39A U54A U80C | 0.13 |
| C39A U58C G61A | 0.11 |
| C39A U60A U74C | 0.43 |
| C39A U69A U72C | 0.19 |
| C39G A57G A65G U67C U78C U80C | 0.06 |
| C39G A64G U69A | 0.23 |

| Variant | self-cleavage |
| --- | --- |
| C39G C40U G52C U69A | 0.19 |
| C39G G55A A57C | 0.1 |
| C39G U41A U43C A45U A47U U67A | 0.08 |
| C39G U43A C68G | 0.14 |
| C39G U54C U60C C62U U74C A75G | 0.06 |
| C39G U60G A64U | 0.09 |
| C39U A45C U67C | 0.11 |
| C39U A45G C59G | 0.11 |
| C39U A45G U48C U49A U78C | 0.09 |
| C39U A45U U49A | 0.36 |
| C39U A56G A64G U72C | 0.26 |
| C39U A56G U66C C71G | 0.08 |
| C39U A56G U78C | 0.51 |
| C39U A57G U72C | 0.22 |
| C39U A75G U80C | 0.48 |
| C39U C62U U80C | 0.57 |
| C39U G46U U78C | 0.26 |
| C39U G53A U80C | 0.84 |
| C39U G55A U67A | 0.18 |
| C39U G63U A64G U80A | 0.35 |
| C39U U41A A45G U74C U76A | 0.37 |

| Variant | self-cleavage |
| --- | --- |
| C39U U41A U43C | 0.44 |
| C39U U41C C71G | 0.15 |
| C39U U41C C71G U78C | 0.27 |
| C39U U41C G55A A64G G70U U72A | 0.13 |
| C39U U41C U49A U58C C71G A75U | 0.14 |
| C39U U41C U51G | 0.92 |
| C39U U41C U54A U72G | 1.01 |
| C39U U41G A56G U69C U76C | 0.13 |
| C39U U43A G55A | 0.93 |
| C39U U43C U51A U54C A56G U76A | 0.04 |
| C39U U48C A75G | 0.42 |
| C39U U48C A77U | 0.27 |
| C39U U49C G55U | 0.16 |
| C39U U49C U58C | 0.18 |
| C39U U51A U58C | 0.54 |
| C39U U51A U66C | 0.29 |
| C39U U51G A65G C71G U78A | 0.13 |
| C39U U54C U72C U76C | 0.8 |
| C39U U54G U72C | 0.63 |
| C39U U67C A75U U76G | 0.26 |
| C39U U72C U76A | 1.07 |

Reference: the RNAGym collection of RNA variant scans (doi:10.1093/nar/gkz1192)
